{
  "source": "PubChem BioAssay AID624417",
  "about": "(National Center for Advancing Translational Sciences (NCATS), 2012)",
  "note": "Out of some 410,000 compounds screened, about 6,400 (1.6%) were called active. Inconclusive means that the source gave no clear call. Such entries were picked first, then a sample of the others. Calls come from the whole dose curve; as a rule, active = well fitted inhibition curve with a large enough effect; inconclusive = small, poorly fitted or top-dose-only effect; inactive = no such curve, though single readings can be large or run the other way. No potency is given beside an inconclusive call; the fits are too rough. % is set by controls: 0 for no effect and ±100 for the full control effect; potency is the fitted concentration of half-maximal effect; tags give direction and shape of the fitted curve.",
  "data": [
    {"target": "Glucagon-like peptide 1 receptor (Homo sapiens) (UniProt P43220)", "sequence (P43220 whole entry, looked up)": "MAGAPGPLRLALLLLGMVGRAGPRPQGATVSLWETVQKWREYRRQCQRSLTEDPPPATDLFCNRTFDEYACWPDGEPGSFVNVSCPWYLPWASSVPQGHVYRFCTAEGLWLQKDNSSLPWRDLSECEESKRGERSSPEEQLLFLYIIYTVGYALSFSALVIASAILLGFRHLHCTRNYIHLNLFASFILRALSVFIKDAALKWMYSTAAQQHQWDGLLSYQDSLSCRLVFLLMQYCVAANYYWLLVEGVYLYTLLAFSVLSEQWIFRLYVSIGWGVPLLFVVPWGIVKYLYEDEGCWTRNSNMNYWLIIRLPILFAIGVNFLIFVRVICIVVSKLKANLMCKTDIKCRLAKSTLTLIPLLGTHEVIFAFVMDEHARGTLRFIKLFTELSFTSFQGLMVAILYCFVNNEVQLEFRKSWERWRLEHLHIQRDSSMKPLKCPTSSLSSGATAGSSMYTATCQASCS", "experiment": "qHTS of GLP-1 Receptor Inverse Agonists (Inhibition Mode); note: nearly all actives have a fitted effect of over 55% in size", "details": "HEK293 GLP-1R CRE-luciferase, luminescence, 24 h, GLP-1R form is constitutively active; activity change, negative = inhibition: at 38.3 µM (top of the series) unless noted", "in_short": "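HEK293 cells stably co-expressing constitutively active GLP-1R and a cAMP-responsive luciferase reporter were seeded in DMEM with 10% Nu serum, given compounds after 12 h, and incubated 24 h at 37 deg C. Luminescence was then read.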", "values": [
      {"smiles": "Nc1ncc(Br)cc1S(=O)(=O)NCCC(=O)NCCc1ccc(Cl)cc1", "Potency": "inconclusive [inhibitor, single point]"},
      {"smiles": "COC(=O)CNC(=O)Cc1c(C)n(C(=O)c2ccc(Cl)cc2)c2ccc(OC)cc12", "Potency": "inconclusive [inhibitor, single point]"},
      {"smiles": "COc1cccc(CN(C)CC(=O)Nc2sc3c(c2C#N)CCC3)c1OC", "activity change, negative = inhibition": "inactive: 5.15%"},
      {"smiles": "COc1ccc(-n2cc(-c3ccc(C)cc3)[n+]3c2SCC3)cc1", "Potency": "inconclusive [inhibitor, partial curve, poor fit]"},
      {"smiles": "CCCOC(=O)c1ccc(NC(=O)CN(C)Cc2cccs2)cc1", "Potency": "inconclusive [inhibitor, single point]"},
      {"smiles": "N#Cc1nc(Cl)c(Cl)c(NN)c1Cl", "Potency": "inconclusive [inhibitor, single point]"},
      {"smiles": "CC1(C)COCN1S(=O)(=O)c1ccc(C(=O)Nc2nnc(-c3ccc(Cl)s3)o2)cc1", "Potency": "inconclusive [inhibitor, full curve, poor fit]"},
      {"smiles": "Cc1ccc(CCNC(=O)CSCc2ccc(F)cc2)cc1", "Potency": "inconclusive [inhibitor, partial curve, poor fit]"},
      {"smiles": "OC(COc1ccc(Br)cc1)CN1CCC(Cc2ccccc2)CC1", "note": "(stereo not drawn)", "Potency": "inconclusive [inhibitor, partial curve, poor fit]"},
      {"smiles": "COc1cc(OC)c(CN2CCC(CO)(CCOc3ccccc3)CC2)c(OC)c1", "Potency": "inconclusive [inhibitor, partial curve, poor fit]"},
      {"smiles": "Cc1cc(C(=O)CSc2nnc(Cc3ccccc3)o2)c(C)n1Cc1ccc2c(c1)OCO2", "Potency": "inconclusive [inhibitor, single point]"},
      {"smiles": "CCN(CC)c1ccc(C2C(C(N)=O)=C(C)Nc3ncnn32)cc1", "note": "(stereo not drawn)", "activity change, negative = inhibition": "inactive: 4.11%"},
      {"smiles": "CCc1nc(N2CCC3(CC2)OCCO3)c2nnn(Cc3ccccc3)c2n1", "Potency": "inconclusive [inhibitor, single point]"},
      {"smiles": "CC1CCN(C(=O)CC(NC(=O)c2ccccc2Cl)c2ccccc2)CC1", "note": "(stereo not drawn)", "Potency": "inconclusive [inhibitor, partial curve, poor fit]"},
      {"smiles": "O=C(NCC1CCCO1)Nc1cc(Cl)cc(Cl)c1", "note": "(stereo not drawn)", "Potency": "inconclusive [inhibitor, single point]"},
      {"smiles": "COc1cc(OC)c(C=NNC(=S)NC23CC4CC(CC(C4)C2)C3)c(OC)c1", "Potency": "inconclusive [inhibitor, partial curve, poor fit]"},
      {"smiles": "COCCNc1ncnc2c1c(-c1ccccc1)cn2-c1cccc(Cl)c1", "Potency": "inconclusive [inhibitor, single point]"},
      {"smiles": "CC(C)(C)c1ccc(-c2noc(CCC(=O)N3CCOCC3)n2)cc1", "Potency": "inconclusive [inhibitor, partial curve, poor fit]"},
      {"smiles": "Cc1cccc(NC(=O)[C@@H]2CCCN2S(=O)(=O)c2ccc(Cl)cc2)c1", "Potency": "inconclusive [inhibitor, single point]"},
      {"smiles": "C=CCNC(=O)C(=O)Nc1ccc2c(c1)N(S(=O)(=O)c1cccs1)CCC2", "Potency": "inconclusive [inhibitor, partial curve]"},
      {"smiles": "O=S(=O)(N/N=C\\c1cccn1-c1ccccc1)c1ccc2ccccc2c1", "Potency": "inconclusive [inhibitor, single point]"},
      {"smiles": "CCN(CC(=O)Nc1c(F)cccc1F)C(=O)C1CCN(S(=O)(=O)c2ccc(C)c(C)c2)CC1", "Potency": "inconclusive [inhibitor, single point]"},
      {"smiles": "COc1ccccc1C(=O)Nc1ccccc1C(=O)Nc1ccccc1", "Potency": "inconclusive [inhibitor, single point]"},
      {"smiles": "CCN(CC)S(=O)(=O)c1cccc(-c2cn3cc(C)ccc3n2)c1", "Potency": "inconclusive [inhibitor, full curve, poor fit]"},
      {"smiles": "COc1ccc(C(=O)Nc2ccnn2C2CCN(C(=O)C3CCOC3)CC2)cc1", "note": "(stereo not drawn)", "activity change, negative = inhibition": "inactive: -6.17%"},
      {"smiles": "CN(C)/C=C/c1onc(-c2ccccc2Cl)c1C#N", "Potency": "inconclusive [inhibitor, single point]"},
      {"smiles": "Cc1c(CCOC(=O)C23CC4CC(CC(C)(C4)C2)C3)sc[n+]1Cc1ccccc1", "Potency": "inconclusive [inhibitor, single point]"},
      {"smiles": "NC(N)=Nc1ccc(C=C2C=Cc3ccccc32)cc1", "Potency": "inconclusive [inhibitor, partial curve, poor fit]"},
      {"smiles": "COc1cccc(NC(=S)N/N=C2/CCCCc3ccccc32)c1", "Potency": "inconclusive [inhibitor, single point]"},
      {"smiles": "Cc1ccccc1CS(=O)(=O)Cc1ccc(C(=O)NCc2ccc(F)cc2)o1", "Potency": "inconclusive [inhibitor, single point]"},
      {"smiles": "Cc1ccc(-c2csc(N(CC3CCCO3)C(=O)c3ccco3)n2)cc1", "note": "(stereo not drawn)", "Potency": "inconclusive [inhibitor, partial curve, poor fit]"},
      {"smiles": "CCOc1ccccc1C(=O)NN1C(=O)CCC1=O", "activity change, negative = inhibition": "inactive: 7.12%"},
      {"smiles": "c1ccc(COc2ccc(OCCN3CCCCC3)cc2)cc1", "Potency": "inconclusive [inhibitor, partial curve, poor fit]"},
      {"smiles": "Cc1ccc(NC(=O)Cn2c(=O)ccc3cc(S(=O)(=O)N4CCC(C)CC4)ccc32)cc1Cl", "activity change, negative = inhibition": "inactive: 5.39%"},
      {"smiles": "Cc1ccc(C)c(NC(=O)c2cc(=O)c3cc(C)cc(C)c3o2)c1", "activity change, negative = inhibition": "inactive: 5.33%"},
      {"smiles": "CCCCN(C)C(=O)c1cc2c(s1)-c1ccccc1S(=O)(=O)C2", "Potency": "inconclusive [inhibitor, single point]"},
      {"smiles": "O=C(COc1cccc(C(F)(F)F)c1)N1CCN(c2ccc(O)cc2)CC1", "Potency": "inconclusive [inhibitor, full curve, poor fit]"},
      {"smiles": "COc1ccc(O)c(-c2[nH]ncc2C(=O)c2ccccc2C)c1", "activity change, negative = inhibition": "inactive: -9.71%"},
      {"smiles": "OC(c1ccc(F)cc1)c1nc(-c2cccc(C(F)(F)F)c2)cs1", "note": "(stereo not drawn)", "Potency": "inconclusive [inhibitor, single point]"},
      {"smiles": "N#Cc1nc(-c2ccccc2)oc1NCc1ccco1", "activity change, negative = inhibition": "inactive: 0.791%"},
      {"smiles": "COc1ccc(-c2nc(NC(=O)CCNC(=O)c3ccco3)sc2C)cc1", "Potency": "inconclusive [inhibitor, single point]"},
      {"smiles": "O=C(Cc1cccc2ccccc12)NCCc1ccccc1", "Potency": "inconclusive [inhibitor, partial curve, poor fit]"},
      {"smiles": "Cn1c(SCc2ccc(C(C)(C)C)cc2)nnc1C1COc2ccccc2O1", "note": "(stereo not drawn)", "Potency": "inconclusive [inhibitor, full curve, poor fit]"},
      {"smiles": "C(=NNc1nnn(Cc2ccccc2)n1)c1ccccc1", "Potency": "inconclusive [inhibitor, full curve, poor fit]"},
      {"smiles": "Cc1ccc(C)c(OCC(O)CN2CCC(Cc3ccccc3)CC2)c1", "note": "(stereo not drawn)", "Potency": "inconclusive [inhibitor, partial curve, poor fit]"},
      {"smiles": "CCN(CC)c1ccc(NC(=O)C2COc3ccc(OC)cc3C2)c(C)c1", "note": "(stereo not drawn)", "Potency": "inconclusive [inhibitor, full curve, poor fit]"},
      {"smiles": "O=C(Nc1ccc(CN2CCCCC2)cc1)c1sc2ccccc2c1Cl", "Potency": "inconclusive [inhibitor, full curve]"},
      {"smiles": "CCCOc1ccc(OCCNC2CCCC2)cc1", "activity change, negative = inhibition": "inactive: -8%"},
      {"smiles": "CC1(C(=O)NS(=O)(=O)Cc2cccc(Cl)c2)CCN1C(=O)Cc1ccccc1", "note": "(stereo not drawn)", "activity change, negative = inhibition": "inactive: 2.44%"},
      {"smiles": "CN(C)c1ccc(/C=N/NC(=O)c2ccc(NC(=O)c3ccccc3)cc2)cc1", "Potency": "inconclusive [inhibitor, single point]"},
      {"smiles": "O=C(Nc1ccc2c(c1)N(C1CCCC1)C(=O)c1ccccc1S2)c1ccc(F)cc1", "Potency": "inconclusive [inhibitor, partial curve]"},
      {"smiles": "CCN1CCCC1CNC(=O)CCc1nc(-c2ccc(C)cc2)no1", "note": "(stereo not drawn)", "Potency": "inconclusive [inhibitor, partial curve, poor fit]"},
      {"smiles": "CCCn1c(N2CCN(C(=O)Nc3ccc(Cl)cc3)CC2)nc2ccccc21", "Potency": "inconclusive [inhibitor, partial curve, poor fit]"},
      {"smiles": "CCOc1ccccc1N1CCN(C(=S)NCc2ccccc2)CC1", "Potency": "inconclusive [inhibitor, partial curve, poor fit]"},
      {"smiles": "CN(C)S(=O)(=O)c1cccc(NC(=O)c2cc(-c3cccs3)nc3ccccc23)c1", "Potency": "inconclusive [inhibitor, partial curve, poor fit]"},
      {"smiles": "CCN(CC)CCCNC(=O)c1ccc2nc(CCc3ccccc3)oc2c1", "Potency": "inconclusive [inhibitor, partial curve, poor fit]"},
      {"smiles": "CN(Cc1c(F)cccc1Cl)C(=O)COC(=O)Cn1cnc2ccccc2c1=O", "activity change, negative = inhibition": "inactive: 8.86%"},
      {"smiles": "C=Cc1ccc(Cn2c(=O)n(-c3cccc(C)c3)c(=O)c3c2c2cc(C)ccc2n3C)cc1", "Potency": "inconclusive [inhibitor, full curve, poor fit]"},
      {"smiles": "CCCc1cc(NC(=O)COC(=O)c2ccc(O)cc2O)n(-c2ccccc2)n1", "Potency": "inconclusive [inhibitor, partial curve, poor fit]"},
      {"smiles": "Cc1noc(C)c1CCC(=O)NC1CCCN(Cc2ccc(Cl)cc2)C1", "note": "(stereo not drawn)", "activity change, negative = inhibition": "inactive: -4.92%"},
      {"smiles": "CC1Sc2ccc(S(=O)(=O)CCC(=O)N3CCN(c4cccc(Cl)c4)CC3)cc2NC1=O", "note": "(stereo not drawn)", "Potency": "inconclusive [inhibitor, partial curve, poor fit]"},
      {"smiles": "CN(CCO)CCOCCOc1cccc2ccccc12", "Potency": "inconclusive [inhibitor, single point]"},
      {"smiles": "O=C(COC(=O)c1ccccc1O)NC12CC3CC(CC(C3)C1)C2", "Potency": "inconclusive [inhibitor, partial curve, poor fit]"}
    ]}
  ]
}
